For 27 molecules, inhibition results are on record in ChEMBL document CHEMBL5606460, “ASAP - DENV-2 NS2B-NS3 protease fluorescence single point” (2024).

For this assay, the target named is Genome polyprotein (dengue virus type 2) (UniProt P29990).
[1] abbreviates: Thailand/16681/1984, Concentration 25.0 uM, Number of replicates 1.0.

Out of some 2,000 compounds screened, about 110 (5.5%) showed an effect of 50% or more. The list shows a part of the results.

For orientation: inhibition means the relative decrease from the control value, in per cent. As to `NCc1cccc(NC(=O)[C@@H](NC(=O)OCc2ccccc2)c2ccc(F)c(F)c2)c1`, the inhibition was -6.54% (Thailand/16681/1984, Concentration 49.5 uM, Number of replicates 2.0, Standard deviation 1.4013065114851189 %); -6.15% (Thailand/16681/1984, Concentration 99.01 uM, Number of replicates 2.0, Standard deviation 2.1722806038563465 %); -2.47% (Thailand/16681/1984, Concentration 198.0 uM, Number of replicates 2.0, Standard deviation 2.359590386651735 %).

Regarding `CCn1ncc(N)c1-c1nn(C)cc1NC(=O)c1ccccc1C(F)(F)F`, the inhibition is -3.42% (Thailand/16681/1984, Concentration 49.5 uM, Number of replicates 2.0, Standard deviation 3.463157820383284 %); -2.92% (Thailand/16681/1984, Concentration 99.01 uM, Number of replicates 2.0, Standard deviation 3.448439719414795 %); -0.859% (Thailand/16681/1984, Concentration 198.0 uM, Number of replicates 2.0, Standard deviation 4.48360939292153 %).

Regarding `Cc1cc(CO)c2cccc(C[C@H](NC(=O)[C@@H](N)c3ccsc3)C(=O)O)c2n1`, the inhibition amounted to 8.31% (Thailand/16681/1984, Concentration 49.95 uM, Number of replicates 2.0, Standard deviation 1.7977802295531586 %) and 20.1% (Thailand/16681/1984, Concentration 99.9 uM, Number of replicates 2.0, Standard deviation 1.1856845832025373 %).

Consider `CCCCN(CCCC)CCCNC(=O)C1CCN(c2ccc(C=O)cc2)CC1`, for which the inhibition under setting [1] is 15.7%.

`Cc1cc(CO)c2cccc(Cc3cccc(NC(=O)Cc4cccc(CN)c4)c3)c2n1`: the inhibition turned out to be 9.22% (Thailand/16681/1984, Concentration 49.95 uM, Number of replicates 2.0, Standard deviation 1.5571170041089204 %) and 20.8% (Thailand/16681/1984, Concentration 99.9 uM, Number of replicates 2.0, Standard deviation 3.140543082582705 %).

Regarding `CCCCCC(=O)N[C@H](C(=O)N1CCCCC1)c1ccc(OCc2ccccc2)cc1`, the inhibition was -0.107% (Thailand/16681/1984, Concentration 49.5 uM, Number of replicates 2.0, Standard deviation 0.2378185107331052 %); -1.31% (Thailand/16681/1984, Concentration 99.01 uM, Number of replicates 2.0, Standard deviation 0.1909965362220304 %); 1.05% (Thailand/16681/1984, Concentration 198.0 uM, Number of replicates 2.0, Standard deviation 1.389360893431949 %).

`CC(C)C(=O)N1CCN(C(=O)C2CCN(c3ccc(C=O)cc3)CC2)CC1`: under setting [1], the inhibition stood at 11.7%.

Turning to `c1ccc(-n2cc(CN3CCC(c4c[nH]c5cccnc45)CC3)nn2)cc1`, the inhibition is -4.07% (Thailand/16681/1984, Concentration 49.5 uM, Number of replicates 2.0, Standard deviation 4.560638827721375 %); -4.92% (Thailand/16681/1984, Concentration 99.01 uM, Number of replicates 2.0, Standard deviation 3.740439913687727 %); -4.28% (Thailand/16681/1984, Concentration 198.0 uM, Number of replicates 2.0, Standard deviation 3.303170912246841 %).

In the case of `CNC(=O)c1cc(Cl)ccc1NS(=O)(=O)c1ccncc1`, the inhibition runs as follows: (Thailand/16681/1984, Concentration 49.5 uM, Number of replicates 2.0, Standard deviation 1.2269842800583624 %) -3.48%; (Thailand/16681/1984, Concentration 99.01 uM, Number of replicates 2.0, Standard deviation 0.8853112431233394 %) -3.3%; (Thailand/16681/1984, Concentration 198.0 uM, Number of replicates 2.0, Standard deviation 0.4264789024599154 %) -4.04%.

Consider `Cn1c(C(=O)Nc2cc(Cl)cc(C(=O)NC(C)(C)CO)c2)cccc1=O`, for which the inhibition is -0.99% (Thailand/16681/1984, Concentration 49.5 uM, Number of replicates 2.0, Standard deviation 0.4081268580659683 %); -1.01% (Thailand/16681/1984, Concentration 99.01 uM, Number of replicates 2.0, Standard deviation 2.113430221710736 %); 0.352% (Thailand/16681/1984, Concentration 198.0 uM, Number of replicates 2.0, Standard deviation 2.072570516879941 %).

`CN(CCCCc1ccccc1)C(=O)C1CCN(c2ccc(C=O)cc2)CC1`: under setting [1], the inhibition came to 13%.

As to `Cc1cc(CO)c2cccc(Cc3ccccc3NC(=O)Cc3c[nH]c4ccccc34)c2n1`, the inhibition (Thailand/16681/1984, Concentration 49.95 uM, Number of replicates 2.0, Standard deviation 1.1797806526631314 %) was 5.6% and the inhibition (Thailand/16681/1984, Concentration 99.9 uM, Number of replicates 2.0, Standard deviation 0.9471475819719768 %) was 13.1%.

Take `NCc1cccc(NC(=O)[C@@H](Cc2c[nH]c3ccccc23)NC(=O)OCc2ccccc2)c1`: the inhibition (Thailand/16681/1984, Concentration 49.5 uM, Number of replicates 2.0, Standard deviation 0.5533931785698599 %) was -3.79%; the inhibition (Thailand/16681/1984, Concentration 99.01 uM, Number of replicates 2.0, Standard deviation 0.8728976475377288 %) was -3.24%; the inhibition (Thailand/16681/1984, Concentration 198.0 uM, Number of replicates 2.0, Standard deviation 1.5348647219639115 %) worked out at 0.836%.

In the case of `Cn1cc(NC(=O)c2ccccc2C(F)(F)F)c(-c2cnn(CCF)c2)n1`, the inhibition runs as follows: (Thailand/16681/1984, Concentration 49.5 uM, Number of replicates 2.0, Standard deviation 1.0351827811766225 %) -1.26%; (Thailand/16681/1984, Concentration 99.01 uM, Number of replicates 2.0, Standard deviation 0.6202752538285244 %) -1.64%; (Thailand/16681/1984, Concentration 198.0 uM, Number of replicates 2.0, Standard deviation 0.5771619780812757 %) -1.73%.

With `C[Si](C)(C)CN(Cc1ccccc1)C(=O)C1CCN(c2ccc(C=O)cc2)CC1`, under setting [1], the inhibition is 11.5%.

In the case of `CNC(=O)c1cc(Cl)ccc1NS(=O)(=O)c1ccc(Oc2ccccc2Cl)cc1`, the inhibition (Thailand/16681/1984, Concentration 49.5 uM, Number of replicates 2.0, Standard deviation 2.214504665393713 %) worked out at 57.1%; the inhibition (Thailand/16681/1984, Concentration 99.01 uM, Number of replicates 2.0, Standard deviation 0.44410505168195935 %) stood at 89.7%; the inhibition (Thailand/16681/1984, Concentration 198.0 uM, Number of replicates 2.0, Standard deviation 0.048202507704939286 %) stood at 89.7%.

Turning to `O=Cc1ccc(N2CCC(C(=O)NC3(c4cccc(F)c4)CC3)CC2)cc1`, the inhibition under setting [1] came to 11.9%.

Take `CC(C)[C@H](CNC(=O)C1CCN(c2ccc(C=O)cc2)CC1)N1CCCC1`: under setting [1], the inhibition is 12.6%.

For `O=C(O)c1cnn([C@H]2CCCN(C(=O)c3c[nH]c4ccccc34)C2)c1`, the inhibition is -2.6% (Thailand/16681/1984, Concentration 49.5 uM, Number of replicates 2.0, Standard deviation 0.2879130457854372 %); -0.821% (Thailand/16681/1984, Concentration 99.01 uM, Number of replicates 2.0, Standard deviation 1.3824179166362038 %); 0.437% (Thailand/16681/1984, Concentration 198.0 uM, Number of replicates 2.0, Standard deviation 0.2454608012102332 %).

Take `Cc1nnc([C@H](C)n2cc(C3CCNCC3)c(C)n2)o1`: the inhibition (Thailand/16681/1984, Concentration 49.5 uM, Number of replicates 2.0, Standard deviation 23.401160981224884 %) amounted to 6.09%; the inhibition (Thailand/16681/1984, Concentration 99.01 uM, Number of replicates 2.0, Standard deviation 17.471832455878243 %) worked out at 11.7%; the inhibition (Thailand/16681/1984, Concentration 198.0 uM, Number of replicates 2.0, Standard deviation 4.4669335919131345 %) was -3.53%.

Take `O=Cc1ccc(N2CCC(C(=O)Nc3c(F)cc(F)cc3[N+](=O)[O-])CC2)cc1`: the inhibition under setting [1] worked out at 15.2%.

Regarding `Nc1cccc2nccnc12`, the inhibition is -6.11% (Thailand/16681/1984, Concentration 49.95 uM, Number of replicates 2.0, Standard deviation 5.295989560794225 %) and -3.3% (Thailand/16681/1984, Concentration 99.9 uM, Number of replicates 2.0, Standard deviation 5.261439871388237 %).

Consider `Cc1cc(CO)c2cccc(C[C@H](NC(=O)CN3CCOCC3)C(=O)O)c2n1`, for which the inhibition (Thailand/16681/1984, Concentration 49.95 uM, Number of replicates 2.0, Standard deviation 0.9688152767914274 %) was 2.24% and the inhibition (Thailand/16681/1984, Concentration 99.9 uM, Number of replicates 2.0, Standard deviation 0.45062736078271726 %) was 9.49%.

As to `O=C(NCCc1c[nH]nc1O)[C@]1(c2ccc(F)cc2)CCCNC1`, the inhibition reads like this: (Thailand/16681/1984, Concentration 49.5 uM, Number of replicates 2.0, Standard deviation 1.1119212341343476 %) 0.072%; (Thailand/16681/1984, Concentration 99.01 uM, Number of replicates 2.0, Standard deviation 0.36955187067267553 %) 0.004%; (Thailand/16681/1984, Concentration 198.0 uM, Number of replicates 2.0, Standard deviation 0.8691816863450689 %) -0.069%.

In the case of `O=Cc1ccc(N2CCC(C(=O)N3CCN(Cc4ccc(OC(F)(F)F)cc4)CC3)CC2)cc1`, under setting [1], the inhibition came to 10.9%.

Turning to `Cc1cc(CO)c2cccc(Cc3cccc(NC(=O)CN4CCOCC4)c3)c2n1`, the inhibition is -3.12% (Thailand/16681/1984, Concentration 49.95 uM, Number of replicates 2.0, Standard deviation 0.37901345884173465 %) and 1.92% (Thailand/16681/1984, Concentration 99.9 uM, Number of replicates 2.0, Standard deviation 0.45265428702130317 %).

`CN1CCN(c2ccc(NC(=O)C3CCN(c4ccc(C=O)cc4)CC3)cc2F)CC1`: the inhibition under setting [1] was 9.12%.
